The campaign covered roughly 52,000 compounds. About 1,700 (3.3%) were called active. No stated cut-off is given here; in the data, active means survival mostly below about 52% (no sharp cut-off); inactive means mostly above about 56%. This is one part of the list.
These compounds were tested on Wild type (assay: growth inhibition of S. aureus wild type versus tarO mutant, primary screen, teichoic acid synthesis inhibitors, RN4220, OD600 (AID 463173)). Conditions: S. aureus RN4220 wild type/DeltatarO growth, OD600, 18 h, hits give low values, screened at 18.75 µg/mL (by protocol).

Row | Structure (SMILES) | survival
1 | COc1ccccc1NC(=O)c1c(NCc2ccc(OC)c(OC)c2OC)sc2c1CCC2 | inactive: 85%
2 | CC(C)c1ccc(NC(=O)Cn2cc(S(=O)(=O)N3CCN(c4ccccc4F)CC3)c3ccccc3c2=O)cc1 | inactive: 69%
3 | COC(=O)C1=C(C)OC(N)=C(C#N)C1c1ccco1 (stereo unspecified) | inactive: 90%
4 | Cc1cc(Cl)ccc1OCc1nc(-c2ccc(-n3cccc3)cc2)no1 | inactive: 145%
5 | O=C(O)CSc1c[nH]c2ccccc12 | inactive: 113%
6 | CCCNC(=O)CCc1nnc2ccc(N3CCN(c4cccc(OC)c4)CC3)nn12 | inactive: 101%
7 | CCCCN(C)CCNC(=O)c1c2c(nc3ccccc13)C(=O)N(C1CCCCC1)C2 | inactive: 75%
8 | CCCCOC(=O)c1ccc(NC(=O)c2cc3c(=O)n4cccc(C)c4nc3s2)cc1 | inactive: 71%
9 | Cc1c(C(=O)NCC(c2ccc(Cl)cc2)N2CCOCC2)oc2ccccc12 (stereo unspecified) | inactive: 71%
10 | CCOc1ccc(N2CC(c3nc4ccccc4n3CCCOc3ccccc3)CC2=O)cc1 (stereo unspecified) | inactive: 66%
11 | CC(C)(C)OC(=O)N1CCC(c2c(C(=O)NCCN3CCc4ccccc4C3)cnn2-c2ccc(F)cc2F)CC1 | inactive: 81%
12 | Cc1ccc(CN2CCC(CNC(=O)Nc3ccc(Cl)cc3)C2)cc1 (stereo unspecified) | inactive: 53%
13 | Cc1ccc(NC(=O)CCn2c(=O)c3cccn3c3ccccc32)cc1C | inactive: 73%
14 | Cc1ccc(-n2c(=O)c3cccnc3n2CC(=O)Nc2ccc(Br)cc2)cc1C | inactive: 57%
15 | CCC(=O)N1CCc2cc(Br)cc(S(=O)(=O)CCC(=O)NCCc3cccc(C)c3)c21 | inactive: 45%
16 | CC(Oc1ccc(F)cc1)C(=O)N1CCC(c2nc3ccccc3s2)CC1 (stereo unspecified) | inactive: 80%
17 | C=CCn1c(NC)nc2c1c(=O)[nH]c(=O)n2C | inactive: 101%
18 | Cc1cc(C)cc(NC(=O)C(Cc2ccccc2)NS(=O)(=O)c2ccc3c(c2)c(=O)n(C)c(=O)n3C)c1 (stereo unspecified) | inactive: 87%
19 | Cn1ncc2c(N3CCN(c4cccc(Cl)c4)CC3)ncnc21 | inactive: 73%

Row | Structure (SMILES) | survival
20 | N#Cc1c(NC(=O)COC(=O)c2cccs2)sc2c1CCC2 | inactive: 110%
21 | CCOC(=O)N1CCc2c(sc(NCc3sccc3C)c2C(=O)Nc2ccc(OC)cc2OC)C1 | inactive: 71%
22 | CCOC(=O)c1cc2c(ccn2-c2ccc(F)cc2)n1CC(=O)N1C(C)CCCC1C (stereo unspecified) | inactive: 134%
23 | COc1ccc(C)cc1NC(=O)CCS(=O)(=O)c1cc2c3c(c1)CCN3C(=O)CC2 | inactive: 77%
24 | COc1ccccc1N1CCN(C(=O)c2nc(SC)ncc2Cl)CC1 | inactive: 89%
25 | CCOc1ccc(Oc2nc(NCC(C)C)nc(N3CCOCC3)n2)nn1 | inactive: 74%
26 | CC(C)(C)C(=O)Cn1c(=O)n(-c2ccc(Cl)cc2)c(=O)c2c3c(sc21)CCCC3 | inactive: 96%
27 | O=C(/C=C/c1ccccc1)N1CCN(Cc2cc(=O)n3nc(-c4ccccc4F)sc3n2)CC1 | inactive: 102%
28 | CC(=O)N1CCc2cc(CNC(=O)Cc3ccc(F)cc3)ccc21 | inactive: 69%
29 | CCOc1ccccc1CNC(=O)C1CCN(C(=O)N2CC(CC)Oc3ccc(C)cc32)CC1 (stereo unspecified) | inactive: 87%
30 | COc1cccc(CNC(=O)C(=O)NCC(c2ccco2)S(=O)(=O)c2cccs2)c1 (stereo unspecified) | inactive: 87%
31 | O=C(Cn1c(SCCOc2ccccc2)nc2ccccc21)N1CCOCC1 | inactive: 86%
32 | COc1ccc(N2CC(NC(=O)/C=C\c3ccccc3)CC2=O)cc1 (stereo unspecified) | inactive: 101%
33 | Cc1cc(OCCn2cc(C(=O)c3cccs3)c3ccccc32)ccc1Cl | inactive: 119%
34 | O=C(Nc1ccc2nc(SCC(=O)N3CCOCC3)sc2c1)c1cccc(Cl)c1 | inactive: 39%
35 | Cc1c(C(=O)OCCOc2ccccc2)[nH]c2c1C(=O)CC(c1ccccc1)C2 (stereo unspecified) | inactive: 102%
36 | COc1ccc(Cl)cc1N(C)C(=O)c1ccc2c(=O)n3c(nc2c1)CCCCC3 | inactive: 69%
37 | COc1ccc(NC(=O)Cn2c(=O)n(CCC(=O)NCc3ccccc3OC)c(=O)c3ccccc32)cc1Cl | inactive: 101%
38 | Cc1ccc(Cn2ccn(Cc3ccccc3F)c(=O)c2=O)cc1 | inactive: 113%

Row | Structure (SMILES) | survival
39 | CSc1ccc(CCNC(=O)c2ccc(-c3nc(COc4ccccc4)c(C)o3)cc2)cc1 | inactive: 81%
40 | Cc1cccc(N2CCN(CCCNc3ncnc4onc(-c5ccc(Cl)cc5)c34)CC2C)c1 (stereo unspecified) | inactive: 66%
41 | COc1cccc(CNC(=O)CCc2c(C)nc3c(c(C)nn3-c3ccc(C)c(C)c3)c2C)c1 | inactive: 86%
42 | Cc1nc2c(-c3ccccc3)c(C)nn2c(C)c1CCC(=O)N1CCN(c2ccc(F)cc2)CC1 | inactive: 76%
43 | Cc1c(Cl)cccc1NC(=O)COCc1cc(-c2ccc3c(c2)OCO3)on1 | inactive: 81%
44 | COc1ccc(CCNC(=O)CCn2c(=O)c3ccccc3n(Cc3cc(C)ccc3C)c2=O)cc1OC | inactive: 96%
45 | Cc1ccc2nc(-c3ccc(Cl)c(NC(=O)COc4cccc(C)c4C)c3)oc2c1 | inactive: 69%
46 | CCN1CCOC(=O)C1CC(=O)Nc1cc(C)ccc1OC (stereo unspecified) | inactive: 113%
47 | Cc1cccc(NC(=O)c2ccc3snnc3c2)c1 | inactive: 105%
48 | CCOC(=O)c1sc(NC(=O)/C=C/c2ccc(C(C)C)cc2)c(C(=O)OCC)c1C | inactive: 55%
49 | CCCc1cc(=O)[nH]c2nnc(SC(C)CC)n12 (stereo unspecified) | inactive: 80%
50 | CCN(CC)c1ccc(NC(=O)CCS(=O)(=O)c2cc3c(cc2Cl)NC(=O)CO3)c(C)c1 | inactive: 87%
51 | O=c1cc(C(F)(F)F)nc2cc(-c3ccccc3)[nH]n12 | inactive: 104%
52 | Cc1ccc2nc(N3CCN(c4cccc(C(F)(F)F)c4)CC3)c3nnnn3c2c1 | inactive: 78%
53 | CCc1cccc(C)c1NS(=O)(=O)c1cc2[nH]c(=O)c(=O)[nH]c2cc1C | inactive: 77%
54 | CCc1ccc(NCc2cc3cc4c(cc3n(CC(=O)Nc3cccc(OC)c3)c2=O)OCO4)cc1 | inactive: 78%
55 | CC(C)COc1ccc(C(=O)NCC2(N3CCN(C)CC3)CCCCC2)cc1 | inactive: 88%
56 | COCCNC(=O)Cn1nc(C)c2c(C)n(-c3ccc(C)cc3)nc2c1=O | inactive: 131%

Reference: PubChem BioAssay AID463173 (ICCB-Longwood Screening Facility, Harvard Medical School, 2010)
